The supplement of paper PMC10441789
This is one part of the list. Antibody binding of pooled human sera (four to six donors per pool; dilution not stated) to peptides of the Trypanosoma cruzi antigen TSSA on microarrays. Quantile-normalised fluorescence in arbitrary units, mean of duplicate arrays; higher = more binding. No active / inactive call. The uninfected pools are read here as the healthy donors of the same country. The strongest signals lie near the top of the scale (about 60,000).

Columns and labels:
Assay in all cases: antibody binding signal (normalised fluorescence) (arbitrary fluorescence units); higher = stronger serum antibody binding to peptide
[1] = test system: pooled sera of chronic Chagas disease patients, Argentina
Protocol: (§1)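 Microarray of 15-residue peptides over residues 30-55 of Trypanosoma cruzi TSSAII, each with 1 to 10 substitutions at naturally variable positions, probed with one serum pool per country.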

[2] = test system: pooled sera of chronic Chagas disease patients, Bolivia
Protocol: as §1

[3] = test system: pooled sera of chronic Chagas disease patients, Brazil
Protocol: as §1

[4] = test system: pooled sera of chronic Chagas disease patients, Colombia
Protocol: as §1

[5] = test system: pooled sera of chronic Chagas disease patients, Mexico
Protocol: as §1

[6] = test system: pooled sera of chronic Chagas disease patients, USA
Protocol: as §1

[7] = test system: pooled sera of uninfected people, Argentina
Protocol: as §1

[8] = test system: pooled sera of uninfected people, Bolivia
Protocol: as §1

[9] = test system: pooled sera of uninfected people, Brazil
Protocol: as §1

[10] = test system: pooled sera of uninfected people, Colombia
Protocol: as §1

[11] = test system: pooled sera of uninfected people, Mexico
Protocol: as §1

[12] = test system: pooled sera of uninfected people, USA
Protocol: as §1

Sequence	antibody binding signal [1]	antibody binding signal [2]	antibody binding signal [3]	antibody binding signal [4]	antibody binding signal [5]	antibody binding signal [6]	antibody binding signal [7]	antibody binding signal [8]	antibody binding signal [9]	antibody binding signal [10]	antibody binding signal [11]	antibody binding signal [12]
GKEKKPATGETPSPP	30200	5530	20500	6560	8410	19700	165	167	94.6	126	479	412
GTDKKAAAGGAPSPP	262	202	255	5840	722	952	176	236	150	142	127	125
PSGKEKKAATGETPS	5530	2220	9230	4700	6880	14000	473	593	133	235	98.8	152
GTDNKTAAGGTPSPS	1640	249	24100	5090	518	1360	233	690	2770	476	1690	168
KENKTAAGGAPSPSG	185	216	209	2210	334	279	227	89.2	125	112	102	153
DNKAATGEAPSPPGA	22000	37200	36500	139	159	24500	138	111	216	121	120	112
GKDKKTATGEAPSPP	5840	3050	5820	2950	3440	15200	143	85.8	101	96.4	82.9	107
SGTENKTAAGGAPSP	31000	4770	11100	7280	1110	3070	450	438	482	393	473	236
TEKKTAAGGTPSQSG	1310	326	332	14400	682	2600	309	148	1130	191	746	288
TDKKTATGETPSQPG	1170	2840	30300	399	242	7230	256	437	433	211	245	223
ENKAATGGTPSPSGA	512	2640	497	616	348	279	227	168	581	375	137	156
TENKTAAGETPSPSG	27400	330	526	195	307	2540	209	249	220	151	311	2080
KENKPATGETPSPPG	35400	28900	35300	281	720	25200	275	480	314	156	1470	1360
TDKKPAAGEAPSPPG	805	253	18700	342	189	14400	107	319	201	77.6	122	76.8
PPSGKDNKAAAGGAP	1040	295	2030	1310	3430	2590	409	619	163	302	113	227
SGTDNKPAAGETPSP	4860	1030	43700	2670	281	2970	123	650	287	253	325	531
EKKAAAGETPSQPGA	1000	750	31200	712	297	4700	177	1320	149	663	376	1100
DKKAATGGAPSQSGA	790	358	652	899	1110	863	494	464	133	673	143	203
GTDKKTAAGEAPSQP	3470	12700	34900	1300	561	7520	236	330	155	927	168	106
TDNKTAAGETPSQPG	828	3220	31000	187	186	862	149	642	277	255	130	160
GKDKKAATGGAPSPP	526	262	294	992	1020	1130	187	154	99.9	180	94.7	110
GKDNKPATGETPSPS	35100	18900	32600	1410	1840	26500	414	891	212	271	2020	2190
SGTDKKAAAGGTPSP	370	312	1200	12800	786	1880	166	143	1180	372	591	207
STPPSGKENKPATGE	34400	39800	34700	429	4610	21800	1920	2070	227	780	215	386
TPPSGTENKAATGGT	42600	41000	45200	186	1370	15100	2240	555	1250	384	242	359

Sequence	antibody binding signal [1]	antibody binding signal [2]	antibody binding signal [3]	antibody binding signal [4]	antibody binding signal [5]	antibody binding signal [6]	antibody binding signal [7]	antibody binding signal [8]	antibody binding signal [9]	antibody binding signal [10]	antibody binding signal [11]	antibody binding signal [12]
SGKDNKTATGGAPSP	1030	206	612	3030	1060	1760	303	124	126	383	83.8	162
STPPSGKENKPAAGE	41800	43100	24900	376	12300	14500	2370	1850	515	1030	228	477
EKKTATGGAPSQPGA	1940	579	2620	3020	1230	995	351	859	136	138	340	765
TDKKPATGGTPSPSG	1100	996	600	3090	769	1020	256	703	1380	298	230	165
KDKKAATGETPSQPG	1360	287	19300	116	162	7410	199	109	98.6	219	89.9	110
EKKTATGEAPSPSGA	10900	14600	9560	337	780	19000	288	688	153	80.6	185	690
GTEKKAATGEAPSQP	25800	23600	43100	833	1690	28300	539	690	201	607	202	166
PSGKEKKPAAGETPS	9750	3530	10200	13300	11500	7280	595	583	106	315	95.8	251
TPPSGTENKTAAGGT	52600	44500	50300	699	5740	19600	2200	464	2440	659	491	427
KENKPAAGETPSPPG	245	328	18800	317	386	4210	162	341	192	167	180	1050
SGTEKKPATGEAPSP	44700	47300	47100	392	316	38000	839	1080	703	310	224	356
EKKPAAGGAPSPPGA	650	251	574	5240	436	1220	292	752	357	137	145	862
GTDKKTAAGGAPSQS	181	310	183	5490	480	417	143	221	122	153	141	112
TDKKPATGEAPSQSG	43000	46800	45900	392	187	37900	828	660	207	277	292	143
TDNKAAAGGAPSPSG	268	394	380	3270	264	498	397	301	277	292	187	256
SGTENKAATGGAPSP	42300	17000	23700	669	870	6920	629	457	197	269	188	148
GKEKKAATGEAPSPP	18500	14000	20600	8290	8670	19000	237	82.9	93.3	191	73.6	131
TDNKAATGGTPSQSG	417	938	488	448	523	166	281	324	400	210	400	123
TEKKTAAGGTPSQPG	1300	227	401	17000	805	2880	500	120	976	492	1410	278
SSTPPSGTENKAAAG	52800	48100	56000	456	6470	27600	3130	672	445	738	312	706
PPSGKENKTATGEAP	22000	24300	14100	1110	1760	21500	1810	1570	382	1060	387	292
ENKPAAGGTPSPPGA	828	2480	1210	1660	364	596	227	412	1130	429	168	264
GTDKKTATGEAPSPP	10800	20200	13300	1190	631	19500	195	167	174	123	163	132
TPPSGTENKTATGGT	50000	45900	50800	307	2240	19900	2460	554	1240	674	438	456
PPSGTEKKAAAGGAP	31300	932	13200	5420	3080	2890	1080	369	267	279	151	290
